The other results are listed elsewhere or left out. At the low end of the ranking, values are background and their order means little.

Here are results for 172 sequences from paper PMC6212790.

The assay has as its target T1, GST-Rok (full length) (UniProt O34857).
T1 sequence: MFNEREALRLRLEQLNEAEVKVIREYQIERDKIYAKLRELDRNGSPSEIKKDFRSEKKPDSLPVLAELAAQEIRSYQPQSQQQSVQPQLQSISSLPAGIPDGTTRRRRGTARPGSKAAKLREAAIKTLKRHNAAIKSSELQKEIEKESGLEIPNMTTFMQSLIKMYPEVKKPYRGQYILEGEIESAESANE
As to the kind of experiment: protein binding microarray.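 Note: rank score from −0.5 (least bound) to 0.5 (best bound).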 As to conditions: Rok is a gene silencer of Bacillus subtilis; high values mean tight binding; most listed sequences are background and not binding sites; double strand, one strand shown.
CCCCGCCC had a binding signal of -0.438 E-score.

Take CCCACTGC: the binding signal is -0.283 E-score.

Take CCCAACCG: the binding signal is -0.167 E-score.

CGCGTCTA had a binding signal of 0.00787 E-score.

Turning to AGCTTTGG, the binding signal was -0.158 E-score.

With GCGCATCA, the binding signal worked out at 0.0639 E-score.

Sequence GGAGTGAA had a binding signal of -0.227 E-score.

Sequence TCCTGGAA returned a binding signal of -0.1 E-score.

CCAGTTTC registered a binding signal of -0.0817 E-score.

Turning to TAGCGCGA, the binding signal came out at 0.164 E-score.

On to AGTGTCAT, for which the binding signal was -0.0192 E-score.

As for TATAGGAA, the binding signal turned out to be 0.114 E-score.

AGAAGACT: the binding signal is -0.05 E-score.

CCCCATAA yielded a binding signal of -0.219 E-score.

AACTCGTG: the binding signal is -0.0922 E-score.

AGTATGAT yielded a binding signal of 0.24 E-score.

Take CTTCTGTC: the binding signal was -0.234 E-score.

Sequence TCATGCAA came in with a binding signal of 0.102 E-score.

AGGCTTCG came in with a binding signal of -0.0947 E-score.

In the case of ATTACAAG, the binding signal was 0.139 E-score.

Sequence AAGAGTCC came in with a binding signal of -0.323 E-score.

The sequence GGTTCCAC gave a binding signal of -0.138 E-score.

In the case of GATATAGA, the binding signal came to 0.228 E-score.

ATCGAACG had a binding signal of -0.0279 E-score.

As for ACATAGCG, the binding signal was determined as 0.175 E-score.

Regarding AGAGGTCA, the binding signal was -0.232 E-score.

AACACAGC: the binding signal was -0.0213 E-score.

Turning to GATGTTAC, the binding signal was 0.153 E-score.

CGTGTATC returned a binding signal of 0.114 E-score.

CGATCCTC had a binding signal of -0.319 E-score.

The sequence CACCTATA displayed a binding signal of 0.214 E-score.

In the case of TAACGACA, the binding signal is 0.237 E-score.

As to CACCAACC, the binding signal is -0.24 E-score.

On to GACGAGGC, for which the binding signal was -0.197 E-score.

The sequence AATGGAGT returned a binding signal of 0.0603 E-score.

ATTCCGAG returned a binding signal of 0.0438 E-score.

The sequence ATAGTAGC came in with a binding signal of 0.315 E-score.

As to GACCGCCA, the binding signal is -0.271 E-score.

ACTGTTTC: the binding signal was determined as 0.0806 E-score.

With CATTGTCA, the binding signal was -0.00854 E-score.

On to GAATGGGC, for which the binding signal was -0.201 E-score.

The sequence AGAAGACG yielded a binding signal of -0.0852 E-score.

Sequence ACAAATTC came in with a binding signal of 0.238 E-score.

CTGCGGTA gave a binding signal of 0.189 E-score.

CTAGAAAA yielded a binding signal of 0.291 E-score.

Turning to CTCATAGA, the binding signal is -0.105 E-score.

Regarding CTCACTGA, the binding signal is -0.118 E-score.

Sequence ATGAACAT came in with a binding signal of 0.205 E-score.

Take CCAAAATA: the binding signal amounted to 0.164 E-score.

For TACATACA, the binding signal amounted to 0.341 E-score.

AAGCAGCT: the binding signal is -0.0752 E-score.

CTCTTCTA yielded a binding signal of 0.0687 E-score.

Regarding ATTGGGTA, the binding signal was determined as 0.292 E-score.

The sequence GTACCACA showed a binding signal of 0.00441 E-score.

AAGACCTG came in with a binding signal of -0.0804 E-score.

In turn, GCCCGACA returned a binding signal of -0.35 E-score.

As to CCGTGAAA, the binding signal is -0.162 E-score.

As to ACCTAAGG, the binding signal was -0.117 E-score.

Consider ACCGAAGC, for which the binding signal is -0.116 E-score.

Sequence ACCCCGCG yielded a binding signal of -0.324 E-score.

AAGCGCTC yielded a binding signal of -0.0897 E-score.

Turning to CATCGTGA, the binding signal is 0.0959 E-score.

AGATGTAG had a binding signal of 0.312 E-score.

On to AACGCATA, for which the binding signal is 0.201 E-score.

CTAGATTA: the binding signal was found to be 0.317 E-score.

Sequence AATAACCA displayed a binding signal of 0.237 E-score.

TAAGACGA came in with a binding signal of -0.14 E-score.

CGAGGTGC: the binding signal was -0.221 E-score.

For GGGTACTA, the binding signal came out at 0.0543 E-score.

In turn, GTGTCTGA had a binding signal of 0.00226 E-score.

With CCTGGATA, the binding signal was -0.0171 E-score.

AGCTGTAA had a binding signal of -0.0225 E-score.

ACTCCCCC: the binding signal was -0.315 E-score.

For TTGGAAAA, the binding signal was 0.0484 E-score.

In the case of GACCAGAC, the binding signal is -0.176 E-score.

In turn, AAATGTCG registered a binding signal of -0.0294 E-score.

Sequence AACTTGTG gave a binding signal of 0.119 E-score.

AAAGACAA yielded a binding signal of 0.02 E-score.

In turn, GGCATCAC came in with a binding signal of 0.0736 E-score.

For GACACGAA, the binding signal was -0.244 E-score.

AGAACTTG displayed a binding signal of 0.123 E-score.

Take AGCATGTA: the binding signal stood at 0.327 E-score.

With ATCTGGTG, the binding signal was -0.0303 E-score.

Sequence ACCTATGA returned a binding signal of 0.118 E-score.

CACTGGTC: the binding signal was -0.261 E-score.

Turning to ACTAGTGC, the binding signal was 0.256 E-score.

As to GCATGCTA, the binding signal worked out at 0.111 E-score.

CTGCCCGA: the binding signal was -0.215 E-score.

For CAGGCAAA, the binding signal was -0.105 E-score.

Take GTCTATAA: the binding signal turned out to be 0.179 E-score.

Sequence CAGTTCCG registered a binding signal of -0.293 E-score.

As to CGTCAGGA, the binding signal was -0.261 E-score.

In turn, TCAACACA returned a binding signal of 0.0292 E-score.

Sequence CTTCTGAC gave a binding signal of 0.00129 E-score.

The sequence GACAGGTC displayed a binding signal of -0.131 E-score.

In turn, AGCCAATA registered a binding signal of -0.0468 E-score.

As for AATCAATG, the binding signal came to 0.0424 E-score.

In the case of CGTGTCCC, the binding signal is -0.315 E-score.

In turn, GACAGGGC came in with a binding signal of -0.199 E-score.

As for AAGCCTAG, the binding signal was -0.06 E-score.

Turning to CAATTGTC, the binding signal was -0.0649 E-score.

In the case of CGATCGCC, the binding signal is -0.0734 E-score.

Consider CCGGTACG, for which the binding signal was -0.153 E-score.

As for AAATAACC, the binding signal came to 0.146 E-score.

As for AACCTTGA, the binding signal was -0.0799 E-score.

Consider AGAAAAAG, for which the binding signal turned out to be 0.0648 E-score.

CCTCGTCA: the binding signal was -0.22 E-score.

CTTATAAC gave a binding signal of 0.115 E-score.

AACACCGT came in with a binding signal of 0.146 E-score.

As for ATCCAATA, the binding signal came to 0.157 E-score.

As for CAATTTAG, the binding signal was 0.155 E-score.

Consider CTGTGCCC, for which the binding signal was -0.227 E-score.

In the case of CCCTGATC, the binding signal is -0.291 E-score.

As to TAAGTGAA, the binding signal amounted to 0.201 E-score.

In turn, AAGAATTA displayed a binding signal of 0.203 E-score.

Regarding CGGGGAGA, the binding signal is -0.292 E-score.

The sequence CAGTCCCG gave a binding signal of -0.227 E-score.

For TAGTGCGA, the binding signal stood at 0.124 E-score.

With CCGGGGAA, the binding signal was -0.0835 E-score.

AAAATACT registered a binding signal of 0.416 E-score.

CCAATTTC: the binding signal came out at 0.159 E-score.

Consider ACTCCGGC, for which the binding signal was -0.11 E-score.

CCCCAAGG yielded a binding signal of -0.345 E-score.

Turning to TCCGTCCA, the binding signal was -0.306 E-score.

With ATCAGAGA, the binding signal is 0.0162 E-score.

TAGTGGCA displayed a binding signal of 0.128 E-score.

As to CCAGCATC, the binding signal is 0.0753 E-score.

CAGATGAC: the binding signal is -0.166 E-score.

In turn, ATACTCAG returned a binding signal of 0.116 E-score.

The sequence ACCCTCTA yielded a binding signal of -0.152 E-score.

With CGACTAAG, the binding signal was -0.135 E-score.

On to CCAGCCGA, for which the binding signal came out at 0.0657 E-score.

Turning to AAATCCAA, the binding signal turned out to be 0.195 E-score.

Regarding GATTGGTA, the binding signal turned out to be 0.266 E-score.

For the sequence GTGCTAAC, the binding signal was -0.0228 E-score.

GATTCCGA came in with a binding signal of 0.0264 E-score.

Consider AGTGTTGG, for which the binding signal was 0.0473 E-score.

GACTCGGC yielded a binding signal of -0.229 E-score.

CGCTATCA displayed a binding signal of 0.0965 E-score.

ACCTGTGC registered a binding signal of -0.235 E-score.

The sequence CCCATATA came in with a binding signal of 0.0887 E-score.

In turn, ATAAGTTC returned a binding signal of 0.147 E-score.

CACGGCAC had a binding signal of 0.00317 E-score.

Sequence AGTGGCAT had a binding signal of -0.144 E-score.

Regarding ACATTGAC, the binding signal was 0.174 E-score.

In turn, AAGTACTG displayed a binding signal of 0.114 E-score.

Turning to CCGGAAGG, the binding signal was -0.277 E-score.

Sequence CGATGAAA returned a binding signal of 0.0664 E-score.

As for CTTTACCC, the binding signal came out at 0.0425 E-score.

As for ATTACAAT, the binding signal stood at 0.273 E-score.

As to AGAAACCT, the binding signal came out at 0.169 E-score.

On to GAGCATCC, for which the binding signal is -0.345 E-score.

AATGGGAG displayed a binding signal of -0.0919 E-score.

AATATCAC registered a binding signal of 0.326 E-score.

For the sequence CAACGAAA, the binding signal is 0.0924 E-score.

Sequence GCCTGAGA had a binding signal of -0.233 E-score.

Sequence AAGCGTGT gave a binding signal of 0.0855 E-score.

Sequence CTAGCGGA registered a binding signal of 0.139 E-score.

Consider ACAGTGAC, for which the binding signal was found to be 0.0465 E-score.

CGGCTCAC had a binding signal of -0.288 E-score.

The sequence ACGCCGTC showed a binding signal of -0.0817 E-score.

Turning to GCGCTAGC, the binding signal was -0.128 E-score.

Regarding ATAATCCC, the binding signal was -0.205 E-score.

In turn, CTCAGCCC yielded a binding signal of -0.235 E-score.

GAATAGGC yielded a binding signal of -0.173 E-score.

In turn, AATCTAAA had a binding signal of 0.175 E-score.

With CAGCTAAC, the binding signal was -0.0892 E-score.

Consider ATAAACTG, for which the binding signal was 0.175 E-score.

On to AGCGCTTC, for which the binding signal is -0.2 E-score.

For the sequence AGCGGTCC, the binding signal is -0.135 E-score.

The sequence CCACTGAA showed a binding signal of -0.106 E-score.

Sequence CCGGGACG displayed a binding signal of -0.171 E-score.
